Here are results for 9 molecules from publication PMC9133132.

The chains behind the UniProt entries cited, without tags or fusion partners.
UniProt Q96HW7: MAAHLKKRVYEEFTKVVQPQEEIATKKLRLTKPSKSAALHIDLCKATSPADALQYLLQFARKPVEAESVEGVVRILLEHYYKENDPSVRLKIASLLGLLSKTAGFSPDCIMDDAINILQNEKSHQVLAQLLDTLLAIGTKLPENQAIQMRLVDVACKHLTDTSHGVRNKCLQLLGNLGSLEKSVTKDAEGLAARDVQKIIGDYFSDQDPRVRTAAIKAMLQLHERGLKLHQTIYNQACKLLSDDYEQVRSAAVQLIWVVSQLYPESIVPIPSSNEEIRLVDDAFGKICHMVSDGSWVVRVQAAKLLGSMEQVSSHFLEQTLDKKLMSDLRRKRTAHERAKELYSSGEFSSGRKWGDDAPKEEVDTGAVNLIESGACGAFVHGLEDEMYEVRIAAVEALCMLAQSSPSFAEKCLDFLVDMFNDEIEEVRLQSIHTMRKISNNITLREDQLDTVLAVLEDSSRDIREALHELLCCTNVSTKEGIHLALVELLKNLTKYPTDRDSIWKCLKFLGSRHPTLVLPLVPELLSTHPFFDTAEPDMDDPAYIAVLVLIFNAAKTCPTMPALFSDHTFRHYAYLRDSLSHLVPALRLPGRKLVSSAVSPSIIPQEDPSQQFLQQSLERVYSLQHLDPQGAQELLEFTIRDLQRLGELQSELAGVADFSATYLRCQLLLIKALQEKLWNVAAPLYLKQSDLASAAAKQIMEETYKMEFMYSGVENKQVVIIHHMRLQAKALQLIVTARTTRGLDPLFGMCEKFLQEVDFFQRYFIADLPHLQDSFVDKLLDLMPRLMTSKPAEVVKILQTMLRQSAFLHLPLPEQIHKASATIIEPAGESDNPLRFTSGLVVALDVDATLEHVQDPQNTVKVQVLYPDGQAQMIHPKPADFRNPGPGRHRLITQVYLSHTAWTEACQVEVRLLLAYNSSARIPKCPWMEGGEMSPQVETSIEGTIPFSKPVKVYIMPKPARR
UniProt P38432: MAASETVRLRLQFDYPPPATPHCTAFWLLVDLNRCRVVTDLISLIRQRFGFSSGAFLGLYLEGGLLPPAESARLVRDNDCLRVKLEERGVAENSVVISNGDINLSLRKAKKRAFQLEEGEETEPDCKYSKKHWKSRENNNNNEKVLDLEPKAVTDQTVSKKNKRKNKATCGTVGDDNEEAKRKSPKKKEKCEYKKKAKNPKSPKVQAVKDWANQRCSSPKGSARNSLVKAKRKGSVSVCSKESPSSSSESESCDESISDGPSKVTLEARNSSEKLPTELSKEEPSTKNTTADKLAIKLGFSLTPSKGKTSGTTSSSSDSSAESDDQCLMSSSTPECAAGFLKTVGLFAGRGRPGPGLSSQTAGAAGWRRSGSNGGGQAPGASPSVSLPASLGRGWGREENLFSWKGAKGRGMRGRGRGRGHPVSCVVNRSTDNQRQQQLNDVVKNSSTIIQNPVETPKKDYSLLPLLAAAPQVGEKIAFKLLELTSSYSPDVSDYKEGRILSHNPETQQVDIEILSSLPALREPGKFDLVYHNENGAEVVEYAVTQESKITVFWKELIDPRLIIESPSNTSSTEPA
UniProt Q9Y2F5: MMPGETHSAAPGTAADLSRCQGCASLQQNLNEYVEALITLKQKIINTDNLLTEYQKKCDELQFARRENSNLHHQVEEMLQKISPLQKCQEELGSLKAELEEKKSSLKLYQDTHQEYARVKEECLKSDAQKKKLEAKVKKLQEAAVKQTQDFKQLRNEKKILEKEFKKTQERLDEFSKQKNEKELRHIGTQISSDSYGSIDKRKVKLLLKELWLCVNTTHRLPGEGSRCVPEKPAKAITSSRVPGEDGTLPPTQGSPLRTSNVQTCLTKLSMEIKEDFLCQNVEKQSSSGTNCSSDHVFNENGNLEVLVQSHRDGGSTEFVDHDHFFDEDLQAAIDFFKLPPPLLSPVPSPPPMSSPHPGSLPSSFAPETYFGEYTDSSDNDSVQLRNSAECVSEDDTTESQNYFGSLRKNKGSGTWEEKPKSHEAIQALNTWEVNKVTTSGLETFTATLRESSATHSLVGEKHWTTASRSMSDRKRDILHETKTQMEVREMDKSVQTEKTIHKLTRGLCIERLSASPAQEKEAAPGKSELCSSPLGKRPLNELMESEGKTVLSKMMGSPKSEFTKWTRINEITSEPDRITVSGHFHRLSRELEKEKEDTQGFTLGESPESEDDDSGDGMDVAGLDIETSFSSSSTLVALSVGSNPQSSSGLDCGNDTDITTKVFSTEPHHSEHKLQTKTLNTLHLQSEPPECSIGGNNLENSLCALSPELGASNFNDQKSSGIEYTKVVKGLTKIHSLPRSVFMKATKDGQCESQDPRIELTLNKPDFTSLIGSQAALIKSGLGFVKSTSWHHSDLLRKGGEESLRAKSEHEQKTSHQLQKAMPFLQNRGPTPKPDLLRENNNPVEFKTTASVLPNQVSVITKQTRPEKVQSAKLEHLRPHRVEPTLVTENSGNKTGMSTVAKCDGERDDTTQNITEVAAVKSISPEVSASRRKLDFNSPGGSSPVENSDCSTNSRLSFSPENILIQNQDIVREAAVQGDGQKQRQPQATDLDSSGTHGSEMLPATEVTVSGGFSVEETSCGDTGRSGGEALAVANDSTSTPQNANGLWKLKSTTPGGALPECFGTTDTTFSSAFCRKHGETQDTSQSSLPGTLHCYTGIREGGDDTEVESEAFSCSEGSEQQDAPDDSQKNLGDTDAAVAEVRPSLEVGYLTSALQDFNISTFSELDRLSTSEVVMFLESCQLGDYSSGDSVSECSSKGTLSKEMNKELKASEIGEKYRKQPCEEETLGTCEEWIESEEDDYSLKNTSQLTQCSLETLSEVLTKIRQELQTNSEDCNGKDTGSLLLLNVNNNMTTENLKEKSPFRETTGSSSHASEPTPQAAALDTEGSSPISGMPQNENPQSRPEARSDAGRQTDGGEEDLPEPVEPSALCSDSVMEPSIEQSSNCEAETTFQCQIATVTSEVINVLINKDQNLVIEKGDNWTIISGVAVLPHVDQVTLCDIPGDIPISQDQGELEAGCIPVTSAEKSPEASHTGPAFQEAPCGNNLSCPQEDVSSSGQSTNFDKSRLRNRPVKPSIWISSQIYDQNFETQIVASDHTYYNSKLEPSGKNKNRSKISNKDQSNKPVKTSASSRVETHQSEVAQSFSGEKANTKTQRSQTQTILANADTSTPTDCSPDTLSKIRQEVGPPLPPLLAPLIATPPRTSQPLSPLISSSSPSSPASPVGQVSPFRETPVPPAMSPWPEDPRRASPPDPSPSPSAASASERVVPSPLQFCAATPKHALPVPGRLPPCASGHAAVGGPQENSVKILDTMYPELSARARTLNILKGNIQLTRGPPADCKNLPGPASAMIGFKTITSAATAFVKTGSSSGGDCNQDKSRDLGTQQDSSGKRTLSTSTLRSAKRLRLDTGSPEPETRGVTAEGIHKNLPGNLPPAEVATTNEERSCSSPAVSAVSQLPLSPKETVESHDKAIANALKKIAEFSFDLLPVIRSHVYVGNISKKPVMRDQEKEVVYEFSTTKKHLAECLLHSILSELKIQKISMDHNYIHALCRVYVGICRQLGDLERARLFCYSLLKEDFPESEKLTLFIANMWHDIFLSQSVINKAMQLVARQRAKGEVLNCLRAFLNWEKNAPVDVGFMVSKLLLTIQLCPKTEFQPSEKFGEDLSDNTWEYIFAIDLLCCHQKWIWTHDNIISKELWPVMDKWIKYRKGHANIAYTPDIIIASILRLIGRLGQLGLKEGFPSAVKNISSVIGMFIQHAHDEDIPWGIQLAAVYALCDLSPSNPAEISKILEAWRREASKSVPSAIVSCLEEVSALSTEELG
UniProt Q96CJ1: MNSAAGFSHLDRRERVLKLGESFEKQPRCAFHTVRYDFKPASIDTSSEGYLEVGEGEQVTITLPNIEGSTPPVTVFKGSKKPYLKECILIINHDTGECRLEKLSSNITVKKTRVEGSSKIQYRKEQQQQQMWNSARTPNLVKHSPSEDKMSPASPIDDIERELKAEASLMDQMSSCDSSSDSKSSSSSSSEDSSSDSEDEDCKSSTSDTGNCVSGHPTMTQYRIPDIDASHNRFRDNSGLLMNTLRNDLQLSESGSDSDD

Test [1] addresses T1, N-terminally 6xHis- and FLAG-tagged ICE2 (UniProt Q659A1).
T1 sequence: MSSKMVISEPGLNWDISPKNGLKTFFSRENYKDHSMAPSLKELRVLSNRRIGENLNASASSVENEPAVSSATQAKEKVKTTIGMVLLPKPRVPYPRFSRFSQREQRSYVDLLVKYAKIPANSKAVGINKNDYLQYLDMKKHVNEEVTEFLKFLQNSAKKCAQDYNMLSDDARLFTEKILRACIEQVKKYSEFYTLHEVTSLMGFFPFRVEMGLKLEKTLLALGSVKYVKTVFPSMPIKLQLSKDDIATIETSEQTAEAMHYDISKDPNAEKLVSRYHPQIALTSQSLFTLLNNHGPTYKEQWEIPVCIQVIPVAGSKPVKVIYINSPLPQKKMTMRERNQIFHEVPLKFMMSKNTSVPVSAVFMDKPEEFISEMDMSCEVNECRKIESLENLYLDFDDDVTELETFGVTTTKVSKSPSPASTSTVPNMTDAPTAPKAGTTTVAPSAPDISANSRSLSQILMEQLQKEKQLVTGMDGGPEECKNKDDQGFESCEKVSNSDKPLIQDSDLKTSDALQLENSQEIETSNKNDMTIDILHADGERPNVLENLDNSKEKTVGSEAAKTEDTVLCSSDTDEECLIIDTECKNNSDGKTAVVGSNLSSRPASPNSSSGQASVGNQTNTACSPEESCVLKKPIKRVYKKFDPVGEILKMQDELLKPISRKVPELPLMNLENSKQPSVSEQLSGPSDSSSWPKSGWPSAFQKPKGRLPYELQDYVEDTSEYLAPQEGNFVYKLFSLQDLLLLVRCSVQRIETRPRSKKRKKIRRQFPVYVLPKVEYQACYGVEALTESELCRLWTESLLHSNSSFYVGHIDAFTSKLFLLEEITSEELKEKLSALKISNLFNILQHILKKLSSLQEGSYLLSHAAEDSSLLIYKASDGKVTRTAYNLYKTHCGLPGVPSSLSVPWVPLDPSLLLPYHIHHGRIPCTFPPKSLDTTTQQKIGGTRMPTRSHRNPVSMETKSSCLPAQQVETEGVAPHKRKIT
Put plainly: co-IP; reconstituted LEC: HA-ICE1, F-ICE2, HA-ELL and HA-EAF1-wt or HA-EAF1-mut co-expressed in the baculoviral expression system, purified through anti-FLAG affinity chromatography, Coomassie Brilliant Blue staining.

The target of test [2] is T2, FLAG-tagged MED26 (human) (UniProt O95402).
T2 sequence: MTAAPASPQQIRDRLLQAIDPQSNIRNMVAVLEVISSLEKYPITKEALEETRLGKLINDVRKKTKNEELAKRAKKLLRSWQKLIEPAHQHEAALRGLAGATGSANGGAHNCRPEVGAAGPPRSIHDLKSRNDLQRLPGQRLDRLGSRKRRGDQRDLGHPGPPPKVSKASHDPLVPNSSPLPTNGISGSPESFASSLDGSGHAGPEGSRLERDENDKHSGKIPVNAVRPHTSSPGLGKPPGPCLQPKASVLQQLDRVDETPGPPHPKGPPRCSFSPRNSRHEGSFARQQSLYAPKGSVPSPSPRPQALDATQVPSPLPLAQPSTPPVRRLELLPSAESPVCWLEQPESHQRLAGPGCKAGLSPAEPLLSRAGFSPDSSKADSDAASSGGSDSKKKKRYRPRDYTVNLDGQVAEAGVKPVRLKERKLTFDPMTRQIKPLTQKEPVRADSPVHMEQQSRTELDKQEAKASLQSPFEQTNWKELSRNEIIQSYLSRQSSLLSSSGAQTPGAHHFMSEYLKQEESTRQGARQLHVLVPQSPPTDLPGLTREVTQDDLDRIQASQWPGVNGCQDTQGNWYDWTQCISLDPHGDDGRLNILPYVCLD
Briefly: co-IP; as a2, EAF1-mutant HEK293T cells stably expressing F-MED26 (rows for what is lost or barely left in these cells).

For test [3], the target named is T2, FLAG-tagged MED26 (human). Briefly: co-IP; anti-FLAG M2 agarose on nuclear extracts (with Benzonase) of wild-type or EAF1-mutant HEK293T cells stably expressing F-MED26; 2 h at 4 °C; washes 50 mM HEPES-NaOH pH 7.9, 0.15 M NaCl, 0.1% Triton X-100, 10% glycerol; FLAG peptide elution; western blotting.

These are yes or no findings as the source states them, for the method shown. In cells and extracts the contact can be indirect. Some binding calls cover weakened binding; strength is not graded here. Sequences can lack the tags named with a protein.

Regarding “N-terminally 6xHis- and HA-tagged EAF1 wild-type (from UniProt Q96JC9 1-268)”, in test [1], the binding result is given as “binds”.
Turning to “EAF1 point mutant (positions 262 to 265 replaced by alanines), endogenous in the EAF1-point-mutant HEK293T cell line E/2-24 (from UniProt Q96JC9 1-268)”, in test [2], the binding entry was “no binding”.
Turning to “INTS4, component of Integrator (from UniProt Q96HW7 1-963)”, in test [3], the binding entry is “binds”.
The same measure, in the same setting: next, Coilin (from UniProt P38432 1-576): “binds”.
On the same count and under the same terms, next, “EAF1, wild type, endogenous (from UniProt Q96JC9 1-268)”: “binds”.
Take “N-terminally 6xHis- and HA-tagged ICE1 (from UniProt Q9Y2F5 1-2266)”: the binding entry in test [1] was “binds”.
“EAF2, endogenous (from UniProt Q96CJ1 1-260)”: in test [3], the binding entry was “binds”.

B1: NPAT (Nuclear protein, coactivator of histone transcription) (protein, UniProt Q14207 1-1427)
chain: MLLPSDVARLVLGYLQQENLISTCQTFILESSDLKEYAEHCTDEGFIPACLLSLFGKNLTTILNEYVAMKTKETSNNVPAIMSSLWKKLDHTLSQIRSMQSSPRFAGSQRARTRTGIAEIKRQRKLASQTAPASAELLTLPYLSGQFTTPPSTGTQVTRPSGQISDPSRSYFVVVNHSQSQDTVTTGEALNVIPGAQEKKAHASLMSPGRRKSESQRKSTTLSGPHSTIRNFQDPNAFAVEKQMVIENAREKILSNKSLQEKLAENINKFLTSDNNIAQVPKQTDNNPTEPETSIDEFLGLPSEIHMSEEAIQDILEQTESDPAFQALFDLFDYGKTKNNKNISQSISSQPMESNPSIVLADETNLAVKGSFETEESDGQSGQPAFCTSYQNDDPLNALKNSNNHDVLRQEDQENFSQISTSIQKKAFKTAVPTEQKCDIDITFESVPNLNDFNQRGNSNAECNPHCAELYTNQMSTETEMAIGIEKNSLSSNVPSESQLQPDQPDIPITSFVSLGCEANNENLILSGKSSQLLSQDTSLTGKPSKKSQFCENSNDTVKLKINFHGSKSSDSSEVHKSKIEINVLEPVMSQLSNCQDNSCLQSEILPVSVESSHLNVSGQVEIHLGDSLSSTKQPSNDSASVELNHTENEAQASKSENSQEPSSSVKEENTIFLSLGGNANCEKVALTPPEGTPVENSHSLPPESVCSSVGDSHPESQNTDDKPSSNNSAEIDASNIVSLKVIISDDPFVSSDTELTSAVSSINGENLPTIILSSPTKSPTKNAELVKCLSSEETVGAVVYAEVGDSASMEQSLLTFKSEDSAVNNTQNEDGIAFSANVTPCVSKDGGYIQLMPATSTAFGNSNNILIATCVTDPTALGTSVSQSNVVVLPGNSAPMTAQPLPPQLQTPPRSNSVFAVNQAVSPNFSQGSAIIIASPVQPVLQGMVGMIPVSVVGQNGNNFSTPPRQVLHMPLTAPVCNRSIPQFPVPPKSQKAQGLRNKPCIGKQVNNLVDSSGHSVGCHAQKTEVSDKSIATDLGKKSEETTVPFPEESIVPAAKPCHRRVLCFDSTTAPVANTQGPNHKMVSQNKERNAVSFPNLDSPNVSSTLKPPSNNAIKREKEKPPLPKILSKSESAISRHTTIRETQSEKKVSPTEIVLESFHKATANKENELCSDVERQKNPENSKLSIGQQNGGLRSEKSIASLQEMTKKQGTSSNNKNVLSVGTAVKDLKQEQTKSASSLITTEMLQDIQRHSSVSRLADSSDLPVPRTPGSGAGEKHKEEPIDIIKAPSSRRFSEDSSTSKVMVPPVTPDLPACSPASETGSENSVNMAAHTLMILSRAAISRTTSATPLKDNTQQFRASSRSTTKKRKIEELDERERNSRPSSKNLTNSSIPMKKKKIKKKKLPSSFPAGMDVDKFLLSLHYDE
As for B1, the binding entry in test [3] is given as “binds”.

B2: N-terminally 6xHis- and HA-tagged ELL (protein, UniProt P55199 1-621)
chain: MAALKEDRSYGLSCGRVSDGSKVSVFHVKLTDSALRAFESYRARQDSVSLRPSIRFQGSQGHISIPQPDCPAEARTFSFYLSNIGRDNPQGSFDCIQQYVSSHGEVHLDCLGSIQDKITVCATDDSYQKARQSMAQAEEETRSRSAIVIKAGGRYLGKKVQFRKPAPGATDAVPSRKRATPINLASAIRKSGASAVSGGSGVSQRPFRDRVLHLLALRPYRKAELLLRLQKDGLTQADKDALDGLLQQVANMSAKDGTCTLQDCMYKDVQKDWPGYSEGDQQLLKRVLVRKLCQPQSTGSLLGDPAASSPPGERGRSASPPQKRLQPPDFIDPLANKKPRISHFTQRAQPAVNGKLGVPNGREALLPTPGPPASTDTLSSSTHLPPRLEPPRAHDPLADVSNDLGHSGRDCEHGEAAAPAPTVRLGLPLLTDCAQPSRPHGSPSRSKPKKKSKKHKDKERAAEDKPRAQLPDCAPATHATPGAPADTPGLNGTCSVSSVPTSTSETPDYLLKYAAISSSEQRQSYKNDFNAEYSEYRDLHARIERITRRFTQLDAQLRQLSQGSEEYETTRGQILQEYRKIKKTNTNYSQEKHRCEYLHSKLAHIKRLIAEYDQRQLQAWP
Take B2: the binding result in test [1] is given as “binds”.
